PMC7819943, “Rice protein-binding microarrays: a tool to detect cis-acting elements near promoter regions in rice”
Some of the results follow.

These sequences were tested against T1, OsWOX13 (Oryza sativa, UniProt Q5QMM3 1-267) (assay: protein-binding microarray (RPBM); PBS, 2% BSA, 51.3 ng/ul salmon testes DNA, 50 uM zinc acetate, 200 nM TF, 25 C, 1 h; high values mean tight binding). Details: protein: recombinant; tags: N-terminal polyhistidine and DsRed monomer fusion (pET32a); label: CyDye5-dUTP incorporated in the synthesized complementary strand; 3' TTTTT single-stranded linker to array surface; dsDNA, one strand shown.
T1 sequence: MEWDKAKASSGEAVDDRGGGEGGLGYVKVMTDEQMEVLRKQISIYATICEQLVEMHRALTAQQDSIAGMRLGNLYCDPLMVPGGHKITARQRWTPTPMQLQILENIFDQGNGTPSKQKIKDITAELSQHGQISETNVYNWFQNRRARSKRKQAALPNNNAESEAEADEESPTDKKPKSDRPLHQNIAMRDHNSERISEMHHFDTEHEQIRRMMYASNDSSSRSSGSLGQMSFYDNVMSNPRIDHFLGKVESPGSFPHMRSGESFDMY
How it was run: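 Binding signal is reported as fluorescence intensity per feature (arbitrary units) from an Axon 4000B scanner. Incubation used 200 nM of each Ni–NTA-purified, N-terminally polyhistidine- and DsRed-fused transcription factor from E. coli BL21-CodonPlus on a double-stranded custom Agilent array for 1 h at 25 °C, with 50 µM zinc acetate in the buffer, followed by washing.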

| Sequence | binding signal |
| --- | --- |
| CGGATCTTCAATCAGCAGTGTAGATCTTGGGTGGATGTGGCGGAGTCACCTAGTGCAG | 8270 fluorescence intensity (a.u.) |
| TAATCCAAATGATTGGTCAAACAAGAGACATCTACCAAAACGGAGTCACCTAGTGCAG | 7190 fluorescence intensity (a.u.) |
| AGGAAATGAGATTGATGAAAACACTGTTTCTGCAGTTCTGCGGAGTCACCTAGTGCAG | 20800 fluorescence intensity (a.u.) |
| TGATGACTGGGCTGTCACATCAGTATGTTTGGACCAAGTCCGGAGTCACCTAGTGCAG | 12500 fluorescence intensity (a.u.) |
| ATCCGATACTAGATTGCTATAATATGGGACGGAGGGAGTACGGAGTCACCTAGTGCAG | 3180 fluorescence intensity (a.u.) |
| ATAAAATGGGATTTATATGTCTATTATGTATTCTCAGTTTCGGAGTCACCTAGTGCAG | 5700 fluorescence intensity (a.u.) |
| TTTTAATTGCATTCCCCGTAAAAGATAGTAGTACCAATGTCGGAGTCACCTAGTGCAG | 29000 fluorescence intensity (a.u.) |
| GTAACACAATTGATTCATGGAAGACAATATTTCCCCTAGCCGGAGTCACCTAGTGCAG | 6760 fluorescence intensity (a.u.) |
| TGGCACAATAAATTATCGTTGAAAATTTTATTTTGGTTTGCGGAGTCACCTAGTGCAG | 4420 fluorescence intensity (a.u.) |
| AAGATCGATAAATTAATTGAGCGGCGGCGGCTGGGACTATCGGAGTCACCTAGTGCAG | 28700 fluorescence intensity (a.u.) |
| TTGAAAATTTAAAGCAAAATTAAGCATACTTTCTTGCCTTCGGAGTCACCTAGTGCAG | 3510 fluorescence intensity (a.u.) |
| TCAATTAACTGCAACATTTCATTCATACGTAGTGAAACATCGGAGTCACCTAGTGCAG | 8320 fluorescence intensity (a.u.) |
| CCCAAGCAAGAGAAATGATTGGTGATGATTCACGAATATGCGGAGTCACCTAGTGCAG | 8090 fluorescence intensity (a.u.) |
| AATTTTGATAGGGTAGAATTGAAAATGTTTATTTGGATTGCGGAGTCACCTAGTGCAG | 10500 fluorescence intensity (a.u.) |
| AAAGATTTAATTGTTATGAACACAATGGTGTAATCGGATCCGGAGTCACCTAGTGCAG | 31700 fluorescence intensity (a.u.) |
| ATGGATTTGATCACCATTTACAAACAGCTACTTGAGGCATCGGAGTCACCTAGTGCAG | 3270 fluorescence intensity (a.u.) |
| TCATCAATCATTGTCACTTACTACTTTTGTCTTCGTCTCCCGGAGTCACCTAGTGCAG | 40900 fluorescence intensity (a.u.) |
| CTTTTGACTGCCACAGTGTGTTAGGTATATGTTTGTTTCACGGAGTCACCTAGTGCAG | 4920 fluorescence intensity (a.u.) |
| GGATTATCAATCAAGCAAGCAAACAAACACTAAGGAAACCCGGAGTCACCTAGTGCAG | 15000 fluorescence intensity (a.u.) |
| TCTGATAGGACGGCCCATACCTACCTCCACTTCCGCCGGACGGAGTCACCTAGTGCAG | 8180 fluorescence intensity (a.u.) |
| TACTTTTGATTGTTTCACGAACCATGGCTTTGAATTCTTTCGGAGTCACCTAGTGCAG | 18500 fluorescence intensity (a.u.) |

| Sequence | binding signal |
| --- | --- |
| GCTTAACTTTGCTCCTACGTCAATTATCAGTAGCTCAGGGCGGAGTCACCTAGTGCAG | 4670 fluorescence intensity (a.u.) |
| GGGCTCAATTACACAGTTTCTTCAACCTCCAGCCATTTAGCGGAGTCACCTAGTGCAG | 4340 fluorescence intensity (a.u.) |
| ACGTAATTTTATTTTGATGCTAACCGCACAATTACGCGGGCGGAGTCACCTAGTGCAG | 23300 fluorescence intensity (a.u.) |
| CATGTATCAATAATTTGTAACGAAATTAGTACTCCCTCTGCGGAGTCACCTAGTGCAG | 27300 fluorescence intensity (a.u.) |
| ATAATTAGTCGTAACTACGAGCACCTGTATCAAGTCATGCCGGAGTCACCTAGTGCAG | 11100 fluorescence intensity (a.u.) |
| TACCAAGTACGTGATTAGATCGAAGCATAGATCAAAGCCACGGAGTCACCTAGTGCAG | 5120 fluorescence intensity (a.u.) |
| GGGAAGGCGGCGATTGATTTGATTTGACCAAGATTGGTCGCGGAGTCACCTAGTGCAG | 28700 fluorescence intensity (a.u.) |
| ACTAGATGGCTGAATGGAATAGATTATTCCCTATGGACTACGGAGTCACCTAGTGCAG | 4800 fluorescence intensity (a.u.) |
| TCTCAATTTGCAATTAACCCAAAACGATCGAGCGACCAAGCGGAGTCACCTAGTGCAG | 13500 fluorescence intensity (a.u.) |
| CCTCCTGTTAACTCGTATCACCTCCCTCCCTCACTGAACCCGGAGTCACCTAGTGCAG | 7850 fluorescence intensity (a.u.) |
| ATCAATCAACTTACTCGTCATTCTTCCTCCATCTTATAATCGGAGTCACCTAGTGCAG | 12700 fluorescence intensity (a.u.) |
| TTGTTCTAATAAATCACGGCGTGATTTTGAATGAAAATGCCGGAGTCACCTAGTGCAG | 8960 fluorescence intensity (a.u.) |
| ACAAGATTATGACGAACACAACGCCATCACATGCTAGCAGCGGAGTCACCTAGTGCAG | 5370 fluorescence intensity (a.u.) |
| CTGTACTAATTTTGATCTAAGAAAATTACGCGATATGGGTCGGAGTCACCTAGTGCAG | 16100 fluorescence intensity (a.u.) |
| AATGATGGATGTTCCGGCCTAGCTAACCTTTGGATGACCTCGGAGTCACCTAGTGCAG | 11000 fluorescence intensity (a.u.) |
| GTTTGTAATAATTAAAATTTAATTAATCGTGTATTAATAACGGAGTCACCTAGTGCAG | 14000 fluorescence intensity (a.u.) |
| ACTGAGGTGATTAAAGAAACTCTTTTAATCACCTAGGTGGCGGAGTCACCTAGTGCAG | 6320 fluorescence intensity (a.u.) |
| ACTTGATTTCTCTGTTGGAAGATGGGTATATTTCGAGACCCGGAGTCACCTAGTGCAG | 17200 fluorescence intensity (a.u.) |
| GGGATTGTTGACTGATAAAGCTGGATTTGAAGAAACAACACGGAGTCACCTAGTGCAG | 12800 fluorescence intensity (a.u.) |
| ATATATACCAATGATTGTGTCGACATTATATTGCACACTACGGAGTCACCTAGTGCAG | 4320 fluorescence intensity (a.u.) |
| CAGGATAGACTGCTTATAATGCAAACCGATAAAGATGAACCGGAGTCACCTAGTGCAG | 9400 fluorescence intensity (a.u.) |
